{
  "source": "PubChem BioAssay AID1458",
  "about": "(National Center for Advancing Translational Sciences (NCATS), 2008)",
  "note": "The campaign covered roughly 210,000 compounds. About 5,900 (2.8%) were called active. The inconclusive results got no clear call from the source; some entries with a clear call stand among them for comparison. The call rests on the fitted dose curve; in most records, active means well fitted activation curve with a large enough effect; inconclusive means small, poorly fitted or top-dose-only effect; inactive means no such curve, though single readings can be large or run the other way. Potencies beside an inconclusive call are fits to weak or partial responses and may not hold up. Potency means the concentration at half of the fitted maximal effect; tags describe the fitted curve by direction and shape.",
  "data": [
    {"assay": "qHTS Assay for Enhancers of SMN2 Splice Variant Expression; further: nearly all actives have a fitted effect of over 55% in size; on activity change, positive = activation: % of control where 0% means no effect", "details": "HEK293 SMN2-luciferase splicing reporter, luminescence, 30-36 h; activity change, positive = activation: at 46.1 µM (top of the series)", "how_it_was_run": "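qHTS luciferase splicing reporter: luminescence rises when SMN2 exon 7 is included in transfected HEK293 cells. Compound exposure lasted 30-36 h at 37C, with 4.5 mM final sodium butyrate as control, followed by a ONE-Glo read.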", "values": [
      {"compound": "Cn1ncc([N+](=O)[O-])c1C(=O)Nc1ccc(-c2nc3ccccc3[nH]2)cc1", "Potency": "inconclusive: 12.6 µM [activator, partial curve, poor fit]"},
      {"compound": "Cc1ccc(C)c(CN2C(=O)c3ccccc3S(=O)c3ccc(C(=O)N4CCN(c5cccc(Cl)c5)CC4)cc32)c1", "note": "(stereo unspecified)", "Potency": "inconclusive: 4.47 µM [activator, full curve]"},
      {"compound": "CC(C)CC(=O)NC1(C(F)(F)F)C(=O)Nc2c1c(=O)[nH]c(=O)n2-c1ccccc1", "note": "(stereo unspecified)", "Potency": "inconclusive: 6.31 µM [activator, partial curve, poor fit]"},
      {"compound": "O=C(NCCc1ccccc1)c1noc2c1CCCCC2", "Potency": "inconclusive: 17.8 µM [activator, single point]"},
      {"compound": "CC[C@@H](C)[C@@H](CO[C@@H](Cc1ccccc1)C(=O)N[C@@H](CCS(C)(=O)=O)C(=O)OC(C)C)NC[C@@H](N)CS", "Potency": "inconclusive: 0.1 µM [activator, full curve, poor fit]"},
      {"compound": "COc1ccccc1N1C(C)=CC(=C(C#N)c2nc3ccccc3s2)C=C1C", "activity change, positive = activation": "inactive: -42.9%"},
      {"compound": "CC(C)CC(NC(=O)C1CCCCC1)C(=O)NCc1ccccn1", "note": "(stereo unspecified)", "Potency": "inconclusive: 0.0891 µM [activator, full curve, poor fit]"},
      {"compound": "CCN(CC)c1cc(Oc2ccccc2)ncn1", "Potency": "inconclusive: 0.0562 µM [activator, full curve, poor fit]"},
      {"compound": "CCOc1ccc2nc(NC(=O)CCC(=O)c3cccs3)sc2c1", "Potency": "active: 12.6 µM"},
      {"compound": "O=C(N/N=C/c1cccnc1)c1ccc(CN2c3cccc4cccc(c34)S2(=O)=O)cc1", "activity change, positive = activation": "inactive: 8.07%"},
      {"compound": "CCCC[C@H]1C[C@@H]1[C@@H]1N(P(=O)(c2ccccc2)c2ccccc2)C[C@@](O)(c2ccccc2)CC12CC2", "activity change, positive = activation": "inactive: -37.6%"},
      {"compound": "CSc1ccc(/C=C/c2nc3ccccc3n2S(=O)(=O)c2cccc(Cl)c2)cc1", "Potency": "inconclusive: 0.501 µM [activator, full curve]"},
      {"compound": "O=C(CN1CC[n+]2c(-c3cccs3)csc21)c1ccc(Br)cc1", "activity change, positive = activation": "inactive: -15.2%"},
      {"compound": "Cc1cnc(NC(=O)c2cc3ccccc3o2)s1", "Potency": "active: 2.24 µM"},
      {"compound": "CCN1CCN(Cc2c(C)[nH]c3ccc(C(=O)OC)cc3c2=O)CC1", "Potency": "inconclusive: 0.0282 µM [activator, full curve, poor fit]"},
      {"compound": "O=C(NC(Cc1c[nH]c2ccccc12)C(=O)Nc1ccc(OC(F)(F)F)cc1)c1cccs1", "note": "(stereo unspecified)", "Potency": "inconclusive: 5.62 µM [activator, single point]"},
      {"compound": "CCOC(=O)N1CCN(Cc2nc3c(c(=O)n(C)c(=O)n3C)n2CCCc2ccccc2)CC1", "Potency": "inconclusive: 5.62 µM [activator, partial curve]"},
      {"compound": "CCCCCCOc1ccc(OC(=O)c2ccncc2)cc1", "Potency": "inconclusive: 12.6 µM [activator, partial curve]"},
      {"compound": "O=C(/C=C/Nc1ccccc1Br)c1ccccn1", "Potency": "inconclusive: 0.398 µM [activator, partial curve]"},
      {"compound": "N#CC(C#N)C(c1ccsc1)c1c(-c2ccccc2)[nH][nH]c1=O", "note": "(stereo unspecified)", "Potency": "inconclusive: 0.316 µM [activator, full curve, poor fit]"},
      {"compound": "CC(=O)Nc1ccc(N=Cc2ccc(OCc3ccccc3)cc2)cc1", "Potency": "inconclusive: 35.5 µM [activator, single point]"},
      {"compound": "CCOC(=O)c1sc(NC(=S)NC(=O)c2ccccc2)nc1C", "Potency": "inconclusive: 10 µM [activator, partial curve]"},
      {"compound": "CC#CCCCC(=O)Nc1cccc(C(=O)O)c1", "Potency": "inconclusive: 14.1 µM [activator, single point]"},
      {"compound": "CCC(C)c1ccc(NC(=O)c2cccs2)cc1", "note": "(stereo unspecified)", "Potency": "active: 7.94 µM"},
      {"compound": "CCOc1ccc(N2Cc3ccccc3C2)cc1", "Potency": "inconclusive: 14.1 µM [activator, single point]"},
      {"compound": "COc1ccc(O)c(-c2cc(-c3cccs3)[nH]n2)c1", "Potency": "inconclusive: 14.1 µM [activator, single point]"},
      {"compound": "Cc1cc(C)nc(NC(=O)Nc2ccc3c(c2)OCO3)c1", "Potency": "active: 2.51 µM"},
      {"compound": "Cc1cc2n(n1)C(c1ccccc1Cl)Nc1ccccc1-2", "note": "(stereo unspecified)", "Potency": "inconclusive: 35.5 µM [activator, single point]"},
      {"compound": "COc1ccc(/C(C)=N/NC(=O)c2sccc2-n2cccc2)cc1", "activity change, positive = activation": "inactive: 9.56%"},
      {"compound": "CCCCNC(=O)CCCn1c(=O)c2ccccc2n(Cc2cccc(Cl)c2)c1=O", "activity change, positive = activation": "inactive: 7.7%"},
      {"compound": "CCCCc1c(C)nc2c(-c3ccc(OC)cc3)c(C)[nH]n2c1=O", "activity change, positive = activation": "inactive: -2.15%"},
      {"compound": "CCOC(=O)c1ccc(N/C=C/C(=O)C(C)(C)C)cc1", "Potency": "inconclusive: 35.5 µM [activator, single point]"},
      {"compound": "Cc1ccc(/C=C(\\C#N)C(=O)NCC2CCCO2)o1", "note": "(stereo unspecified)", "Potency": "inconclusive: 35.5 µM [activator, single point]"},
      {"compound": "C(=C\\c1nnc(-c2cccs2)o1)/c1ccccc1", "Potency": "inconclusive: 35.5 µM [activator, single point]"},
      {"compound": "COc1ccc(S(=O)(=O)N2N=C(C)Oc3ccccc3C2=O)cc1", "Potency": "inconclusive: 0.141 µM [activator, full curve, poor fit]"},
      {"compound": "CC1CCCC(C)N1C(=O)CSc1nnnn1-c1cccc2c1CCCC2", "note": "(stereo unspecified)", "Potency": "inconclusive: 0.0891 µM [activator, full curve, poor fit]"},
      {"compound": "COc1ccc(-n2c(=O)c(CCc3ccccc3)nc3cnc(N(C)C)nc32)cc1", "activity change, positive = activation": "inactive: 3.6%"},
      {"compound": "CC(=O)c1ccc(NC(=S)NCCc2ccccn2)cc1", "Potency": "inconclusive: 35.5 µM [activator, single point]"},
      {"compound": "O=C(NCCn1ccc2ccccc21)c1ccc2c(c1)OCO2", "Potency": "active: 8.91 µM"},
      {"compound": "CS(=O)(=O)c1ccc(C(=O)OCc2nnc(-c3ccc(Cl)cc3)o2)cc1[N+](=O)[O-]", "activity change, positive = activation": "inactive: 13.7%"},
      {"compound": "Cn1c(=O)cc(SCC(=O)N2CCCC2)c2ccc(Cl)cc21", "activity change, positive = activation": "inconclusive: 40% [activator]"},
      {"compound": "CCCC(C)NC(=O)c1nc(-c2ccccc2)n(-c2ccccc2)n1", "note": "(stereo unspecified)", "Potency": "inconclusive: 0.794 µM [activator, partial curve]"},
      {"compound": "Cc1nc2c(c(C)c1CCC(=O)NCc1ccccc1)c(=O)n(C)c(=O)n2C", "Potency": "inconclusive: 3.16 µM [activator, partial curve, poor fit]"},
      {"compound": "Cc1ccc(S(=O)(=O)c2nc(S(C)(=O)=O)sc2N(C)Cc2ccccc2)cc1", "activity change, positive = activation": "inactive: -22.7%"},
      {"compound": "Cc1ccc(CN(CC(=O)NCCc2ccccc2)C(=O)CCCC(=O)Nc2cc(C)on2)cc1", "Potency": "inconclusive: 1.58 µM [activator, full curve, poor fit]"},
      {"compound": "O=C(CSCC(=O)N1CCOCC1)Nc1nc(-c2ccc3c(c2)OCO3)cs1", "activity change, positive = activation": "inactive: 15.8%"},
      {"compound": "Clc1ccc(-c2cn3cc(Br)ccc3n2)cc1Cl", "Potency": "active: 2.24 µM"},
      {"compound": "COc1ccccc1CN=C1Nc2ccccc2CS1", "Potency": "inconclusive: 35.5 µM [activator, single point]"},
      {"compound": "COc1ccc(NC(=O)c2cc3c(=O)n4ccccc4nc3n2C)cc1OC", "activity change, positive = activation": "inactive: -21%"},
      {"compound": "CC(=O)c1ccc(NC(=O)COC(=O)c2ccccc2N=Nc2ccc(N(C)C)cc2)cc1", "Potency": "inconclusive: 14.1 µM [activator, single point]"},
      {"compound": "COc1ccccc1N1CCN(/N=C\\C(Br)=C\\c2ccccc2)CC1", "Potency": "inconclusive: 5.62 µM [activator, single point]"},
      {"compound": "Cc1ccc(-c2nnc(-c3ccccc3)o2)cc1", "Potency": "active: 2.82 µM"},
      {"compound": "Cc1ccnc(NC(=S)NC(=O)/C=C/c2ccccc2)c1", "activity change, positive = activation": "inactive: 14.7%"},
      {"compound": "COCCNC(=O)C(c1ccncc1)N(Cc1ccccc1)C(=O)Cn1nnc2ccccc21", "note": "(stereo unspecified)", "Potency": "active: 12.6 µM"},
      {"compound": "Cc1ccc(NC(=O)Cc2coc3ccc(C(C)C)cc23)cc1Cl", "Potency": "inconclusive: 4.47 µM [activator, single point]"},
      {"compound": "CC(C)Oc1cc(O)c2c(=O)c(-c3ccc(O)cc3)coc2c1", "Potency": "active: 7.08 µM"},
      {"compound": "COc1ccc(C(O)(C(=O)NNc2ccc(C)cc2)c2cccs2)cc1", "note": "(stereo unspecified)", "Potency": "inconclusive: 31.6 µM [activator, partial curve, poor fit]"},
      {"compound": "O=C(NCc1ccccc1)Nc1cccn(Cc2ccccc2Cl)c1=O", "activity change, positive = activation": "inactive: -39.4%"},
      {"compound": "COc1ccccc1/C=C/C(=O)OCC(=O)c1c(N)n(C)c(=O)n(C)c1=O", "activity change, positive = activation": "inactive: -2.18%"},
      {"compound": "COc1cc(C2C(C#N)=C(N)Oc3cc(N)ccc32)cc(OC)c1OC", "note": "(stereo unspecified)", "Potency": "inconclusive: 0.141 µM [activator, full curve, poor fit]"},
      {"compound": "CCOC(=O)CC(=O)CSc1nc(C)nc2c1oc1ccccc12", "Potency": "inconclusive: 35.5 µM [activator, partial curve, poor fit]"},
      {"compound": "Nc1nc2c(c(=O)[nH]1)N(C=O)C(CNc1ccc(C(=O)NC(CCC(=O)O)C(=O)O)cc1)CN2", "note": "(stereo unspecified)", "activity change, positive = activation": "inactive: -7.66%"},
      {"compound": "COc1cc(/C=N/NC(=O)CC2(C)OCCO2)cc(Br)c1O", "activity change, positive = activation": "inactive: -1.38%"},
      {"compound": "O=C(Nc1ccc2c(c1)OCO2)OCc1ccccc1", "Potency": "active: 20 µM"},
      {"compound": "CN(c1ccc(OCC(=O)OCC(=O)c2c(N)n(C)c(=O)n(C)c2=O)cc1)S(=O)(=O)c1ccc2ccccc2c1", "activity change, positive = activation": "inactive: 7.6%"},
      {"compound": "O=C(O)c1ccncc1.O=C(O)c1ccncc1.[NH2-].[NH2-].[Pt]", "activity change, positive = activation": "inactive: -6.81% [at 9.22 µM]"},
      {"compound": "O=C(Nc1ccc2c(c1)OCCO2)c1ccc2nccnc2c1", "Potency": "inconclusive: 1.58 µM [activator, full curve]"},
      {"compound": "COc1ccccc1Nc1n[nH]c(=S)s1", "Potency": "inconclusive: 14.1 µM [activator, partial curve, poor fit]"},
      {"compound": "COc1ccc(-c2c(C)c3ccc(OCC(C)=O)cc3oc2=O)cc1", "Potency": "inconclusive: 11.2 µM [activator, partial curve, poor fit]"},
      {"compound": "CC1CCCCC1NC(=O)c1cn(C)c2ccc(S(=O)(=O)N3CCCC3)cc2c1=O", "note": "(stereo unspecified)", "Potency": "inconclusive: 14.1 µM [activator, partial curve]"},
      {"compound": "COc1ccc(N(C(=O)c2ccncc2)S(=O)(=O)c2ccc3c4c(cccc24)C(=O)N3C)cc1", "Potency": "inconclusive: 31.6 µM [activator, single point]"}
    ]}
  ]
}
